# The supplement of paper PMC10126150
# Sequences with one replicate were seen in a single cluster, so their values are uncertain.
# System: ATP
# Assay: switch fluorescence ratio, 500 uM ATP over buffer (Cy3 cluster intensity, sum of 5 cycles each) (fold (ratio)); higher = stronger signal-on switching upon ATP binding; sequences stand for … in TCGTCGGCAGCGTCAGATGTGTATAAGAGACAGTTTTTTTTTTTTTTTTTTTTTTTTT…TC
# Settings: aptamer strand: ATP DNA aptamer (quencher-CACCTGGGGGAGTATTGCGGAGGAAGG + anchor), 100 nM annealed; ATP concentration: 500 uM; one replicate
# Procedure, shortened: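 Five buffer/ATP imaging cycles were run on Cy3-labelled switching-strand clusters on a modified Illumina MiSeq flow-cell, with NaOH stripping and re-annealing between cycles. In each cycle, clusters annealed to 100 nM quencher-labelled ATP aptamer were imaged in selection buffer, then after 15 min with 500 uM ATP at 22 °C. Per cluster, the fluorescence ratio is summed target-cycle over summed buffer-cycle Cy3 intensity, averaged per switch-domain sequence. Only clusters within 100-1000 RFU were kept.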
# 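Further: ATP exposure 15 min at 22 °C before imaging.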
row,Sequence,switch fluorescence ratio
1,GTTTCACGAC,1.03
2,GTTTCAGCTA,1.6
3,GTTTCATCG,1.01
4,GTTTCATGCA,0.987
5,GTTTCCTATA,0.972
6,GTTTCGGTAT,0.982
7,GTTTCGTTTG,0.972
8,GTTTCTGGCG,1.01
9,GTTTGGACGG,0.965
10,GTTTGGAGCG,1.01
11,GTTTGGCGGG,1.02
12,GTTTGGTGGC,0.993
13,GTTTGTGCTG,0.993
14,GTTTGTTGCT,0.984
15,GTTTGTTTTG,0.972
16,GTTTTAATGT,0.995
17,GTTTTACCCG,1.03
18,GTTTTACGTA,1.02
19,GTTTTAGACG,0.903
20,GTTTTAGCCC,0.991
21,GTTTTAGGTA,0.963
22,GTTTTAGTAC,1.02
23,GTTTTATTTA,1.02
24,GTTTTCACCT,1.09
25,GTTTTCCTAT,1.02

row,Sequence,switch fluorescence ratio
1,GTTTTCTCAG,1.01
2,GTTTTGCGGG,1.02
3,GTTTTTACCG,1.05
4,TAAAAAACAA,0.991
5,TAAAAACTAG,1
6,TAAAAAGGCA,1
7,TAAAAATCAA,1.01
8,TAAAAGATAT,1
9,TAAAAGCCGG,0.967
10,TAAAAGCCTA,0.976
11,TAAAAGGATA,0.957
12,TAAACACTGC,1.08
13,TAAACCAGAG,1.17
14,TAAACCCGCT,1.03
15,TAAACCCGTC,1.23
16,TAAACCGCTC,1.98
17,TAAACGAATA,1.01
18,TAAACTGGGT,0.948
19,TAAACTTACG,1.46
20,TAAACTTGCG,0.998
21,TAAAGAATCG,1.01
22,TAAAGATATT,0.984
23,TAAAGCTGAA,0.975
24,TAAAGTCACA,1.05
25,TAAAGTTCGT,1.01

row,Sequence,switch fluorescence ratio
1,TAAATATAAG,1.04
2,TAAATCCCTA,1
3,TAAATCCGCA,1.61
4,TAAATCGGAT,0.987
5,TAAATGACAT,1.02
6,TAAATGGCCT,1
7,TAAATGGGAA,1.02
8,TAAATTAAAT,1.02
9,TAAATTAGAC,1.04
10,TAAATTCTGT,0.946
11,TAAATTGACC,1
12,TAAATTGGCT,1.06
13,TAAATTTCGC,0.99
14,TAACAAACCT,2.23
15,TAACAAGGTA,1.09
16,TAACACCTT,1.15
17,TAACATGTTA,0.994
18,TAACCAGCGA,1.68
19,TAACCTAGTG,0.978
20,TAACCTCTG,1.02
21,TAACCTGAGG,1.07
22,TAACCTGCTT,1.05
23,TAACGAGAAA,1.07
24,TAACGAGTTG,0.987
25,TAACGATGCA,1

row,Sequence,switch fluorescence ratio
1,TAACGATTCT,1
2,TAACGGTTGG,1.01
3,TAACGTAATC,3.06
4,TAACGTGGGG,0.985
5,TAACTAGGT,1
6,TAACTCTCT,1.01
7,TAACTCTTTA,0.96
8,TAACTGGTCC,1.05
9,TAACTGTGCT,0.969
10,TAACTTATTA,0.975
11,TAACTTGTCT,1.02
12,TAAGAAAGAA,1.01
13,TAAGACACTA,1.08
14,TAAGACCCTG,1.04
15,TAAGATAAGT,1.02
16,TAAGATCCTT,1.01
17,TAAGATTCAT,0.962
18,TAAGCAGGGT,0.965
19,TAAGCCGGTG,0.98
20,TAAGCGAGTA,0.973
21,TAAGCGCACT,1.03
22,TAAGCTATAG,0.999
23,TAAGCTTCGG,1.06
24,TAAGCTTGAG,1.01
25,TAAGGAAGGT,0.988

row,Sequence,switch fluorescence ratio
1,TAAGGAATCC,1.05
2,TAAGGACAG,0.994
3,TAAGGACTCC,0.969
4,TAAGGCAGTC,1.05
5,TAAGGCCAAA,1.21
6,TAAGGCTTCA,1.1
7,TAAGTACTGG,1.32
8,TAAGTCACAA,1.09
9,TAAGTCACCT,1.2
10,TAAGTCTCAG,0.992
11,TAAGTCTGCC,0.959
12,TAAGTCTTCC,1.63
13,TAAGTGAGCT,1.01
14,TAAGTGATAA,1.01
15,TAAGTGCATT,0.961
16,TAAGTGGTC,1.04
17,TAAGTGTAAG,0.959
18,TAATAAAGCC,1
19,TAATAACGCT,0.984
20,TAATAACGGA,1.03
21,TAATAACTCA,1.08
22,TAATAATTTC,0.969
23,TAATAGAAGA,0.942
24,TAATAGGCAT,0.99
25,TAATAGGTAG,0.967

row,Sequence,switch fluorescence ratio
1,TAATATACCT,1.34
2,TAATATATGA,0.955
3,TAATATGACA,1.03
4,TAATATTGCT,1.35
5,TAATATTTTG,0.988
6,TAATCAAAAG,0.999
7,TAATCAGATG,0.98
8,TAATCGCCGG,1.04
9,TAATCGTAGT,1.03
10,TAATCTCGGA,0.979
11,TAATGACGGA,0.992
12,TAATGATCCA,0.965
13,TAATGCAAGC,1.35
14,TAATGCAT,0.975
15,TAATGGAAAG,1.07
16,TAATGGCGCG,1.02
17,TAATGGCTGG,1.01
18,TAATGGCTTC,1.02
19,TAATGGGGTG,1.08
20,TAATGGGTTC,0.986
21,TAATGTCGCA,0.995
22,TAATGTGGG,1
23,TAATGTTGAA,1.03
24,TAATTAAAGG,1
25,TAATTATCCC,1.08

row,Sequence,switch fluorescence ratio
1,TAATTCCTCC,2.04
2,TAATTCGAAC,0.999
3,TAATTCGCGC,1.04
4,TAATTCGCTT,1.02
5,TAATTCTCCG,1.13
6,TAATTGGTC,1.03
7,TAATTGTAAA,1.02
8,TAATTTTCGA,0.988
9,TAATTTTTAT,0.964
10,TACAAAGTGT,0.998
11,TACAACCTGG,1.04
12,TACAACTCAT,1.02
13,TACAAGCCGG,1.01
14,TACAAGGTTG,1.03
15,TACACGCC,1.04
16,TACACGTCGT,1.02
17,TACACTACTT,1.24
18,TACACTGGTT,1
19,TACAGCGGGA,1.04
20,TACAGCTACG,1.09
21,TACAGGAGCG,0.976
22,TACAGGGTTG,1.02
23,TACAGGTACC,1.03
24,TACAGGTTCA,0.945
25,TACAGTATGT,1

row,Sequence,switch fluorescence ratio
1,TACAGTCCAT,1
2,TACAGTTCCT,1.05
3,TACATACTCA,1.34
4,TACATCTGTA,0.955
5,TACATGAAAA,0.987
6,TACATGATA,0.999
7,TACATGATGA,1.05
8,TACATGATTC,0.976
9,TACATGTTTT,0.984
10,TACATTGCGA,0.966
11,TACATTGTTC,1.05
12,TACATTTGTG,0.969
13,TACCAACAGG,1.1
14,TACCAATTGA,1.01
15,TACCAGCACG,1.15
16,TACCATACAG,1.28
17,TACCATTTTT,0.984
18,TACCCAATTT,1.05
19,TACCCATATC,1.09
20,TACCCCGTTT,0.989
21,TACCCCTATT,1.07
22,TACCCGATG,1.04
23,TACCCGTGGG,1.02
24,TACCCTAATG,1.09
25,TACCCTGTGA,1
